Source: PubChem BioAssay AID242 (DTP/NCI, 2004)
Inconclusive results and toxic doses are left out. Some entries of the source have several records that differ or are many. The other results are left out here. There may be further records. Values that stand side by side are repeats in other runs, samples, wells, individuals or studies.

Test system: BDF1 mice, Lymphoma 8 ip, survival T/C
Test: NCI In Vivo Anticancer Drug Screen. Data for tumor model Lymphoma 8 (intraperitoneal) in B6D2F1 (BDF1) mice
Details: endpoint: survival time, mean or median; dose: 50.0 mg/kg/injection; schedule: Q01DX008 (ip); vehicle: saline; higher = longer survival
Experimental: The antitumor activity of compounds was measured in mice bearing transplantable tumors. Survival or tumor size were measured and the results are expressed as the measurement made in the treated group (T) divided by the measurement made in the vehicle treated control group (C). The tumor model used in this assay is Lymphoma 8 (intraperitoneal) in B6D2F1 (BDF1) mice

CN(N=O)C(=O)N[C@@H](C=O)[C@@H](O)[C@H](O)[C@H](O)CO
T/C: 119 % of control and 151 % of control
